# Assay results from publication PMC4274898.
# By UniProt entry, the sequences of proteins in these tests, tags left out.
# UniProt Q38832: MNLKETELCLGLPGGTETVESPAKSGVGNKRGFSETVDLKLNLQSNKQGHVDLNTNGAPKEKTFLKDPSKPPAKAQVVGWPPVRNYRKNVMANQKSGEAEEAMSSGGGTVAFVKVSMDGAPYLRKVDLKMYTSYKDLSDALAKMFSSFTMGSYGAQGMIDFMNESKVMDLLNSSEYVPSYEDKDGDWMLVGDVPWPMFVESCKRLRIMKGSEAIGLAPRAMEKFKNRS
# UniProt Q38825: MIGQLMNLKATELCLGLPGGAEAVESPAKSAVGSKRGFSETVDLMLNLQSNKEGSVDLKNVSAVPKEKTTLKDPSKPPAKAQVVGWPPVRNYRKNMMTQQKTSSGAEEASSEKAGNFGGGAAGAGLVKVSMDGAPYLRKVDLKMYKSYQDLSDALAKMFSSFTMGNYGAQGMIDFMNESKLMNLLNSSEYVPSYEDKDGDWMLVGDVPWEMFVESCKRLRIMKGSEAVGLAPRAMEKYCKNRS
# UniProt P93830: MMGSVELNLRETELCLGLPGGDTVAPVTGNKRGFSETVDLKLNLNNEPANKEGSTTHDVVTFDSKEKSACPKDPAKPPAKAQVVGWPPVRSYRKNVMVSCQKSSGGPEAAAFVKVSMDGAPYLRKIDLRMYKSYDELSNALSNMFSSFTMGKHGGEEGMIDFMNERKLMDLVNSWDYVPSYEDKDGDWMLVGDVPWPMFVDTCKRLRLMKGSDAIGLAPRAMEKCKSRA
# These are yes or no findings as the source states them, for the method shown. Some entries that bind do so weakly or less than the wild type.
# T1: ARF6 (Arabidopsis thaliana) (UniProt Q9ZTX8)
# T1 sequence: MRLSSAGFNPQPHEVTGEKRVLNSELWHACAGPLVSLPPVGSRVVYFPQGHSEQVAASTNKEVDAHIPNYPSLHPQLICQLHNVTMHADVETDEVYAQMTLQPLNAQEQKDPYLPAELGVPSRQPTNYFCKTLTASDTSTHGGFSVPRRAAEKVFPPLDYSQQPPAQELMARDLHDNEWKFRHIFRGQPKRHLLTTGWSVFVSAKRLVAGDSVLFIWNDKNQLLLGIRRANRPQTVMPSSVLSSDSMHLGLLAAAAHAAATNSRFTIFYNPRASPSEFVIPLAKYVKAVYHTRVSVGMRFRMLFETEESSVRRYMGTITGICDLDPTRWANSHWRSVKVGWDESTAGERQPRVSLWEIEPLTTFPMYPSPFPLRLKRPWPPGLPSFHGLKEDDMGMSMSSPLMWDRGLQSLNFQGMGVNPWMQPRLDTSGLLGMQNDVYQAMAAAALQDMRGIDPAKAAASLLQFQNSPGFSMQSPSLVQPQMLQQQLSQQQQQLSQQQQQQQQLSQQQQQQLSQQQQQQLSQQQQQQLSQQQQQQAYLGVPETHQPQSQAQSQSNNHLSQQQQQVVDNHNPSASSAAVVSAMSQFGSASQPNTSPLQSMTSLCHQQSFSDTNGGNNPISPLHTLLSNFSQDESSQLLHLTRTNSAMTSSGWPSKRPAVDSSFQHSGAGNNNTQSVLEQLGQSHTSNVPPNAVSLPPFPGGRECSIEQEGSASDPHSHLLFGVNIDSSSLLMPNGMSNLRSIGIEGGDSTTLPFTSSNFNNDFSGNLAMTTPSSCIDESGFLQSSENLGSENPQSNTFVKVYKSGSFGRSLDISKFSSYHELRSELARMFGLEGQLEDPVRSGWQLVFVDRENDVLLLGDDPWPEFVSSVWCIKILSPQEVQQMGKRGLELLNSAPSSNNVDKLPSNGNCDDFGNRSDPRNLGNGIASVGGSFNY
# T2: ARF19 (Arabidopsis thaliana) (UniProt Q8RYC8)
# T2 sequence: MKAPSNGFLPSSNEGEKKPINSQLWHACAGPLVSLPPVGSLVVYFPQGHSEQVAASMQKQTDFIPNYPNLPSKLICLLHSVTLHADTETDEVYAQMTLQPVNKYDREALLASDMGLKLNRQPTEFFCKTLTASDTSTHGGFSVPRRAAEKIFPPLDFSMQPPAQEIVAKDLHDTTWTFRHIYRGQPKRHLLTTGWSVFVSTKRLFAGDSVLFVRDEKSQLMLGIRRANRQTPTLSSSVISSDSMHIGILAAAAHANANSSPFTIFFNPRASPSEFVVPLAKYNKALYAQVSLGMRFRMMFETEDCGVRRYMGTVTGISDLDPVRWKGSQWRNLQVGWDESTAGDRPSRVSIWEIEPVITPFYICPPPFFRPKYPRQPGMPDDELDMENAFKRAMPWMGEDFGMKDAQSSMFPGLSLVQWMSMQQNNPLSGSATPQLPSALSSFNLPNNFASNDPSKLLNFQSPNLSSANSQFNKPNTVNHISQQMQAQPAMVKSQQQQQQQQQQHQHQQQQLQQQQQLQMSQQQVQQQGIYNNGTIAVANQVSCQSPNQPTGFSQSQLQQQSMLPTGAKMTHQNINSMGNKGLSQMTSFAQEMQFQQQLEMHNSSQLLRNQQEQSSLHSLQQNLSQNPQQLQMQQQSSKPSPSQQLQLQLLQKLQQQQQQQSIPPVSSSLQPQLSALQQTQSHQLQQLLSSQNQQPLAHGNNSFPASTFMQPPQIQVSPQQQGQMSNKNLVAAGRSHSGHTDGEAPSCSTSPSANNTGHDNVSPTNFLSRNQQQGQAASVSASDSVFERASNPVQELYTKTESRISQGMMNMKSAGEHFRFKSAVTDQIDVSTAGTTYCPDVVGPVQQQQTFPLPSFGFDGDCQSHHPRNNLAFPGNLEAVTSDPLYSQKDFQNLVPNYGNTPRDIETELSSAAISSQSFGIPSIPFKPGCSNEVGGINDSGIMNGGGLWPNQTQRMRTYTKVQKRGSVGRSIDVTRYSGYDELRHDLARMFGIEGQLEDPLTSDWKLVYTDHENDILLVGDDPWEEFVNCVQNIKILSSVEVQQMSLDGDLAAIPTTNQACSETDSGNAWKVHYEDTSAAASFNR
# T3: ARF18 (Arabidopsis thaliana) (UniProt Q9C5W9)
# T3 sequence: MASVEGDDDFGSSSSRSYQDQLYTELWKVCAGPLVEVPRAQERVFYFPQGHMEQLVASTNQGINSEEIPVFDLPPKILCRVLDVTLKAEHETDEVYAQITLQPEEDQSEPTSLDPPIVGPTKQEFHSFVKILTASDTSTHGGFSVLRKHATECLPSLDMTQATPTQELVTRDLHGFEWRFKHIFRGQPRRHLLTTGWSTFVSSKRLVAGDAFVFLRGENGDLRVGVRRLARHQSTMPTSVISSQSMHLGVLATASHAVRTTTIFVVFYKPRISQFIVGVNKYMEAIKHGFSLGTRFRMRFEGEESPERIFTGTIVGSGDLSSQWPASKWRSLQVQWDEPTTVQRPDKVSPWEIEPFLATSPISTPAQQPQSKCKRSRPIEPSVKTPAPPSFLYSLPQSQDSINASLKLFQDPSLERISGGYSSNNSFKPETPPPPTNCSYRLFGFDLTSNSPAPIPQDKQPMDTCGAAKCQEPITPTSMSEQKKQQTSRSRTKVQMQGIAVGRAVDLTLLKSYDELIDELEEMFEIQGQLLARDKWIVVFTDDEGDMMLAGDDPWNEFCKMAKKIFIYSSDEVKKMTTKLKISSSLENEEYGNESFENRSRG
# Assays:
# Test in all cases: two-hybrid; S. cerevisiae AH109 co-transformed with pGBKT7-ARF (bait) and pGADT7-Aux/IAA (prey); growth on SD/-Ade-His-Leu-Trp against SD/-Leu/-Trp; at least 10 independent colonies; serial dilutions for strength
# [1] = target: T1, ARF6 (Arabidopsis thaliana)
# [2] = target: T2, ARF19 (Arabidopsis thaliana)
# [3] = target: T3, ARF18 (Arabidopsis thaliana)
Molecule,binding [1],binding [2],binding [3]
Aux/IAA14 (from UniProt Q38832 1-228),binds,binds,
Aux/IAA7 (from UniProt Q38825 1-243),binds,binds,
Aux/IAA17 (from UniProt P93830 1-229),binds,binds,
"Aux/IAA32 (protein, UniProt Q8RYC6 1-191) MDPNTPADFFKGSSKFHTYYSQTKKGGGVIDLGLSLRTIQHETYLPPARMIGLDGYGELIDWSQPSYNSITQLKSEDTGHQRLAQGYYNNEGESRGKYAYVKVNLDGLVVGRKVCLVDQGAYATLALQLNDMFGMQTVSGLRLFQTESEFSLVYRDREGIWRNVGDVPWKEFVESVDRMRIARRNDALLPF",,,binds
"Aux/IAA34 (protein, UniProt Q9C5X0 1-185) MYCSDPPHPLHLVASDKQQKDHKLILSWKKPTMDSDPLGVFPNSPKYHPYYSQTTEFGGVIDLGLSLRTIQHEIYHSSGQRYCSNEGYRRKWGYVKVTMDGLVVGRKVCVLDHGSYSTLAHQLEDMFGMQSVSGLRLFQMESEFCLVYRDEEGLWRNAGDVPWNEFIESVERLRITRRNDAVLPF",,,binds
